# In the supplement of paper PMC4166925:
# ± gives the standard deviation of the averaged measurements. In all, about 33,000 sequences were measured (“E-score (dimensionless, -0.5 to 0.5)”: median about -0.046, highest 2% from about 0.36 on). The list shows a part of the results.
# Test system: T1, SpTbr T-box DNA-binding domain (GST fusion)
# T1 sequence: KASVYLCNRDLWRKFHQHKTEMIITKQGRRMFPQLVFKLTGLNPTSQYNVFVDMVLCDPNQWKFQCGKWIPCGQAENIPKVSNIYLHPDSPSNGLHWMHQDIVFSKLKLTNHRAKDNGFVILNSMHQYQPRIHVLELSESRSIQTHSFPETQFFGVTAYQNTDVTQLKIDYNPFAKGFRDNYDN
# Experiment: PBM E-score of 8-mer (E-score (dimensionless, -0.5 to 0.5)); Tbr is Tbrain of the sea star Patiria miniata (Pm) or the sea urchin Strongylocentrotus purpuratus (Sp); higher = stronger binding preference; most listed sequences are background and not binding sites
# Details: the construct has about 5 more residues each side
# Protocol: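 Universal protein-binding microarray (Agilent AMADID 016060, 60-bp probes with a 35-bp variable region) incubated with 200 nM GST-fused Strongylocentrotus purpuratus Tbr T-box DNA-binding domain (residues 362-554) in PBS pH 7.5. Scored for every ungapped 8-mer (given with its reverse complement) as E-score (range -0.5 to 0.5; >0.45 counts as bound) and Z-score of median probe intensity. Two replicate arrays (datasets 1 and 2).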
# 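Note: protein at 200 nM in PBS on universal double-stranded arrays.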
row,Sequence,PBM E-score of 8-mer
1,TACCCCGA,-0.09 ± 0.0015
2,GTACAAAA,-0.168 ± 0.04
3,ACTCAAGG,-0.108 ± 0.013
4,ATTTCACC,0.0204 ± 0.024
5,CAACGTTC,0.0585 ± 0.1
6,CTTTCCTA,-0.298 ± 0.043
7,AGGTTGGA,-0.197 ± 0.0089
8,ATCGTGTG,0.221 ± 0.006
9,CTGTTGAA,-0.0895 ± 0.024
10,ACCGTCTC,0.063 ± 0.002
11,CCGTTGAC,0.296 ± 0.013
12,ACCGACCA,-0.169 ± 0.029
13,ATCAAGGA,-0.1417 ± 0.00036
14,AAAGATCA,-0.228 ± 0.15
15,ACACCTAC,0.462 ± 0.0061
16,ATGTAAAA,-0.171 ± 0.019
17,CCTTTCCC,-0.078 ± 0.009
18,CCATCTCG,-0.00959 ± 0.012
19,CTGGTGTA,0.104 ± 0.033
20,ACGATTGG,-0.21 ± 0.086
21,AGCGGTTA,0.0516 ± 0.0084
22,AGGGAGCG,-0.0291 ± 0.064
23,ATGCCTTC,-0.0248 ± 0.021
24,ATATTCAT,-0.205 ± 0.0041
25,CATACCGG,-0.163 ± 0.025

row,Sequence,PBM E-score of 8-mer
1,AAAATCAG,-0.234 ± 0.017
2,CAAGGTAA,-0.0662 ± 0.017
3,ATGGATTG,-0.209 ± 0.013
4,CTCTTATC,-0.00596 ± 0.037
5,CTTATCAA,0.0727 ± 0.015
6,GCTCTACA,-0.0837 ± 0.0077
7,AGTACTAC,-0.3701 ± 0.00051
8,AGAGAAGC,-0.204 ± 0.054
9,GGCTGGCA,-0.108 ± 0.066
10,AACCATCA,0.0714 ± 0.047
11,ATTCATAC,-0.0215 ± 0.0084
12,GATTTTAA,-0.14 ± 0.056
13,ACAACAGG,0.147 ± 0.037
14,CTAAAAAA,-0.0996 ± 0.066
15,ATGAGTGC,-0.0309 ± 0.056
16,ATGCAAAT,-0.132 ± 0.12
17,CTGCACAG,0.028 ± 0.032
18,GGGAAGAC,0.106 ± 0.0049
19,TAGCTAAA,-0.235 ± 0.044
20,AGGGATGG,-0.259 ± 0.011
21,AGTTTTGC,0.0924 ± 0.062
22,CGGACTAA,-0.123 ± 0.0069
23,CACACCAG,0.386 ± 0.036
24,ACGACGCA,-0.151 ± 0.08
25,AATCCCCA,0.114 ± 0.013

row,Sequence,PBM E-score of 8-mer
1,GGTACTAC,-0.3 ± 0.033
2,CTTCGGGC,-0.248 ± 0.054
3,AGTAGCCC,-0.239 ± 0.026
4,CGCAGTTC,0.119 ± 0.043
5,CCACTAAG,-0.0519 ± 0.021
6,AGTGGCAT,0.0645 ± 0.066
7,GCGAAGCA,0.16 ± 0.024
8,AGATTTTA,-0.0586 ± 0.042
9,TATTGGGA,-0.31517 ± 0.00024
10,GGAGGACC,-0.265 ± 0.0099
11,CACCGATG,-0.00494 ± 0.095
12,CCCGATTA,-0.0245 ± 0.038
13,AGGACTGC,-0.254 ± 0.032
14,AGACTCAG,-0.189 ± 0.057
15,GAATTCAC,0.14 ± 0.029
16,GTATCCAA,-0.16 ± 0.019
17,CACCGGAA,-0.0812 ± 0.0033
18,CCATGTGA,0.217 ± 0.044
19,AAATTAGA,-0.171 ± 0.025
20,TCCAATCA,-0.0327 ± 0.079
21,CTCGTTGA,0.153 ± 0.043
22,ATTGACAG,0.102 ± 0.07
23,GAAAGTCC,-0.142 ± 0.031
24,ACCTTTGA,0.113 ± 0.031
25,ATCCTCAA,-0.102 ± 0.006

row,Sequence,PBM E-score of 8-mer
1,GCAATCGA,-0.0853 ± 0.0027
2,ACGTCATG,-0.133 ± 0.012
3,ATTACGCG,0.19 ± 0.028
4,ACCAGCGA,0.131 ± 0.068
5,CGGGTAAC,0.187 ± 0.054
6,CAGCCGCA,0.0502 ± 0.064
7,ACAAGGGT,-0.00938 ± 0.021
8,GGAACTCA,-0.223 ± 0.031
9,TCATGGAA,-0.0871 ± 0.023
10,AGTAGCAC,0.307 ± 0.053
11,AAGGATAG,-0.159 ± 0.051
12,CTGACCGC,-0.233 ± 0.18
13,TCATAGGA,-0.255 ± 0.0034
14,ACATGGGT,-0.0645 ± 0.017
15,AGCTACGC,-0.043 ± 0.027
16,TAAAGAAA,-0.13 ± 0.11
17,ACGTTAGG,-0.121 ± 0.026
18,ACGAACGC,-0.0049 ± 0.0054
19,CGCGGATA,0.0485 ± 0.018
20,GGTAGTCA,-0.301 ± 0.037
21,ATCACCAG,-0.037 ± 0.034
22,ACTGAAAA,-0.137 ± 0.0042
23,CTTCTCTC,0.08 ± 0.04
24,CTTAGCTA,-0.119 ± 0.005
25,ACGCCTCG,0.373 ± 0.019

row,Sequence,PBM E-score of 8-mer
1,GCGTTGTA,0.0523 ± 0.011
2,CCATGAAA,-0.297 ± 0.0053
3,CTAGCCAC,-0.0819 ± 0.074
4,ACGGATCT,-0.0314 ± 0.037
5,GTATTCGA,0.0227 ± 0.011
6,GTGGGCGA,0.00498 ± 0.052
7,CCGGAGAC,0.00931 ± 0.14
8,CAGAGGAC,-0.121 ± 0.0091
9,ACTAGTAT,-0.0296 ± 0.0029
10,ATAGAACC,-0.113 ± 0.034
11,ACAGACCA,-0.22 ± 0.021
12,GGACTCCA,-0.184 ± 0.051
13,AGAAAACG,-0.22 ± 0.034
14,CCCCATGA,-0.299 ± 0.013
15,ACCATCCA,-0.225 ± 0.058
16,CCATCAAG,-0.23 ± 0.037
17,CCTGGGCA,-0.133 ± 0.0046
18,ATTAAGCG,-0.0837 ± 0.025
19,CGTCCGGA,-0.35 ± 0.056
20,ACGTCTAT,-0.0609 ± 0.029
21,CACGTATA,0.09176 ± 0.00022
22,AGCGTTCA,0.0694 ± 0.017
23,GGCAAACC,-0.15 ± 0.048
24,TAACCTCA,-0.153 ± 0.018
25,CATCGGAC,-0.137 ± 0.028

row,Sequence,PBM E-score of 8-mer
1,AGCTATGA,-0.23 ± 0.034
2,AAATCTGA,-0.0698 ± 0.0075
3,GCGGTGAA,-0.0362 ± 0.031
4,CATACCTC,0.0972 ± 0.12
5,ACTCATCC,-0.241 ± 0.082
6,AAACAGCC,0.0781 ± 0.0017
7,GCTACGAA,0.114 ± 0.023
8,ATGATTGG,-0.19 ± 0.041
9,AGCCTGAC,-0.174 ± 0.023
10,GCATGTAA,-0.068 ± 0.03
11,ATCAGGCA,-0.0264 ± 0.026
12,ACCTCTCT,0.0527 ± 0.025
13,GACCCACC,0.0332 ± 0.036
14,GATACCCA,-0.128 ± 0.036
15,AACGCTCC,-0.0485 ± 0.026
16,CAATCTGG,-0.2 ± 0.023
17,TAGATCAA,-0.225 ± 0.045
18,CACATTAA,0.0764 ± 0.025
19,AAAGTGAT,0.205 ± 0.0065
20,AAAGCGTA,-0.0604 ± 0.043
21,GCACGATA,-0.117 ± 0.014
22,ACTAAAGC,-0.0046 ± 0.012
23,AGATAAAA,-0.17 ± 0.043
24,AATTTCGT,-0.116 ± 0.0052
25,AGTAACGA,0.0895 ± 0.002

row,Sequence,PBM E-score of 8-mer
1,GACACATA,0.359 ± 0.005
2,AGGAACTC,-0.188 ± 0.019
3,CGCTTGAG,0.0359 ± 0.022
4,AAGCGACA,0.206 ± 0.027
5,AAGGTAGT,-0.0919 ± 0.035
6,AACGCAGC,-0.119 ± 0.12
7,TCGCTAAA,0.0612 ± 0.059
8,AGGTCCAT,-0.2878 ± 0.00046
9,CACTCACA,0.377 ± 0.017
10,ACTGTTCA,-0.0388 ± 0.05
11,CGATATCA,0.208 ± 0.0049
12,CACCGTCC,-0.0887 ± 0.064
13,AATCGCCG,-0.0609 ± 0.08
14,GCCGGTGA,0.0254 ± 0.033
15,AGGCCGCA,-0.0247 ± 0.035
16,ATTATATA,-0.254 ± 0.0049
17,CCGACACA,0.36 ± 0.022
18,AATGGAGT,-0.196 ± 0.015
19,ACCTAGCT,-0.0977 ± 0.033
20,AAAATCAT,-0.105 ± 0.033
21,ATGTCCTG,-0.0692 ± 0.062
22,ATTGGATG,-0.0731 ± 0.021
